Measurements taken from patent US20190153058A1 (DELINIA, published 2019).

Molecular target: T1, IL2Rαβγ (high affinity IL-2 receptor) on human Treg cells (human, UniProt P01589 22-272; P14784 27-551; P31785 23-369)
T1 sequence (looked up) 1: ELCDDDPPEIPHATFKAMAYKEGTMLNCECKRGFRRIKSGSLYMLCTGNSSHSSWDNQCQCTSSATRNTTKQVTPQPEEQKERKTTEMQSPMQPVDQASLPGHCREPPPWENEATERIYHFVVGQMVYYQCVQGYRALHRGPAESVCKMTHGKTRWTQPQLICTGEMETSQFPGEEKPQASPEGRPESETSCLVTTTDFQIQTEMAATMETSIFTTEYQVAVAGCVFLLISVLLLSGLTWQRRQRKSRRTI
T1 sequence (looked up) 2: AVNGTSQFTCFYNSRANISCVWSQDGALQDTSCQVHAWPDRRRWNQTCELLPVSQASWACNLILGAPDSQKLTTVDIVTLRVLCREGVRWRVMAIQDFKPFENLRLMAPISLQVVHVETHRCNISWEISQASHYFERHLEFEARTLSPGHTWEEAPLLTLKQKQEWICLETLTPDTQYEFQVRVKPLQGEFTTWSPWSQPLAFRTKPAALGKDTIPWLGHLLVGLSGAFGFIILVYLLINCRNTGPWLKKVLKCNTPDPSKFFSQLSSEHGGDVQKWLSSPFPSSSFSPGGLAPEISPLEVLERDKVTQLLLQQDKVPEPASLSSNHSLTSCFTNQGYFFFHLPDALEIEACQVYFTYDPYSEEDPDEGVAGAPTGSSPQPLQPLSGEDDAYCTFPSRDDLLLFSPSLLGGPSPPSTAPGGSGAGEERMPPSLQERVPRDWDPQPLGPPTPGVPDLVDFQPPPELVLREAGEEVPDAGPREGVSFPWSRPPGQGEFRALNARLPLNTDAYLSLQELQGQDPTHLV
T1 sequence (looked up) 3: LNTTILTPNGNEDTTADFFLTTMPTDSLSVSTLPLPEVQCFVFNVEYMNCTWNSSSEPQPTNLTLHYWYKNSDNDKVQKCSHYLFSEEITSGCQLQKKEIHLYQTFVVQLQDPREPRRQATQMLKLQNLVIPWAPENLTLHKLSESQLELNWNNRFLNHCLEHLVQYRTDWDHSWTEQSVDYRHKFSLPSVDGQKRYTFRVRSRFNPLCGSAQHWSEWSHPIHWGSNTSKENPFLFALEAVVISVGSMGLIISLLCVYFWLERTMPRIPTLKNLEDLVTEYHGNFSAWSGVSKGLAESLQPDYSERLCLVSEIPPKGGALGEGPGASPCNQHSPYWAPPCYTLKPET
Assay: cell-based or functional assay

B1: N88RT3AL15AG1 (Fc fusion)
chain: APASSSTKKTQLQLEHLLLDLQMILNGINNYKNPKLTRMLTFKFYMPKKATELKHLQCLEEELKPLEEVLNLAQSKNFHLRPRDLISRINVIVLELKGSETTFMCEYADETATIVEFLNRWITFSQSIISTLTGGGGSGGGGSGGGGS[human IgG1 Fc with changes cut from this listing]
EC50, pSTAT5 in CD25hi human T cells: 1.9e-09 M
Maximal pSTAT5 response at 10^-8M (% pSTAT5+ cells): 0.97 % pSTAT5+ cells
pSTAT5 response at 10^-8M (% of wt IL-2 response): 63 % of wt IL-2 response
